Source: paper doi:10.1101/241067 (bioRxiv, 2017)

Target: the molecule itself
Experiment: cryo-EM structure

B1: Cep3ΔN ([…]) (domain or fragment)
chain: not shown
Does B1 bind?
Result: binds
